Whole data set: some 110,000 compounds, median “z-score” near -0.1, cut for the highest 2% near 2. The list shows a part of the results. Activity calls are given as the source filed them.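 The calls were made as follows: active = z-score in the third read window above 3 or below -3; inactive = the rest.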

Drawing on PubChem BioAssay AID488969 (Vanderbilt High Throughput Screening Facility, 2010), this text covers z-score for 70 compounds.

The assay concerns the target Metabotropic glutamate receptor 8 (Rattus norvegicus) (UniProt P70579). Briefly: rat mGluR8 modulators via GIRK flux, primary screen, cell-based, thallium flux, HTS (AID 488969). The note with it: HEK293 rat mGluR8, GIRK (G protein-gated inwardly rectifying potassium channel) thallium flux, FluoZin2; at 10 µM; stronger effect = higher value; submaximal glutamate (EC20) added with thallium.
Chain of UniProt P70579 (P70579 whole entry, looked up): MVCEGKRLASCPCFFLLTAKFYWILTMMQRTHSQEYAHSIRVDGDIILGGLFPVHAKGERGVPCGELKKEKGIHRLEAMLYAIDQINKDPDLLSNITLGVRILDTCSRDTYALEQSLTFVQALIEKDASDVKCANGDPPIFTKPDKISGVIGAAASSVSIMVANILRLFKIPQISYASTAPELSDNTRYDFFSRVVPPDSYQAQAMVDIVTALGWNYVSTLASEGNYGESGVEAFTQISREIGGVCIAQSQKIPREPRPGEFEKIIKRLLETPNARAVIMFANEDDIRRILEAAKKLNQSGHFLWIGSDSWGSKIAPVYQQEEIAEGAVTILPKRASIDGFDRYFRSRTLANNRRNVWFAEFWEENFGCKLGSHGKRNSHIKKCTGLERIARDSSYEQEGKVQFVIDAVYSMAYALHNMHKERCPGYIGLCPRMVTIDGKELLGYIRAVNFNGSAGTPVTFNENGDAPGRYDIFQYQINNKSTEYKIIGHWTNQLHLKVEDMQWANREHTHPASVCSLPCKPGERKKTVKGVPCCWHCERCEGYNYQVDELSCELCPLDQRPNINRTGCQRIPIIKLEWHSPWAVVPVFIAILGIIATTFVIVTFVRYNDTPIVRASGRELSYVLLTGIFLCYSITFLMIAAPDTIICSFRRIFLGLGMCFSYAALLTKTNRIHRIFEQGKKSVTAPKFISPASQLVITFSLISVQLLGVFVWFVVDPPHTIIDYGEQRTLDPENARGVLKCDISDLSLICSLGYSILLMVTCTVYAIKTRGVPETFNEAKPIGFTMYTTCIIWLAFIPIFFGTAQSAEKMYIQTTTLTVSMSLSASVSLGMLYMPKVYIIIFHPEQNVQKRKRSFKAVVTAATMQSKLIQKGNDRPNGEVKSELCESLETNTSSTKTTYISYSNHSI
Compound `CCOc1ccc(NC(=O)N2CCC(n3c(=O)[nH]c4ccccc43)CC2)cc1` displayed a z-score of -0.177.

`COc1ccc(S(=O)(=O)CCC(=O)N(C)c2ccc(OC)cc2OC)cc1` showed a z-score of 0.332.

As to `CC(=O)c1cccc(NC(=O)C2CC(=O)N(Cc3ccccc3)C2)c1` (stereo not given), the z-score is -0.606.

The compound `Cn1ccnc1C(O)c1ccco1` (stereo not given) yielded a z-score of -0.195.

With `CCOC(=O)c1cccc(C(=O)Oc2ccccc2)n1`, the z-score was -1.04.

Compound `COC(=O)CNC(=O)CSc1nc(N)cc(=O)[nH]1` registered a z-score of -0.273.

Consider `CCCCC1(C)Nc2ccccc2-c2nc3ccccc3n21` (stereo not given), for which the z-score was -1.21.

Compound `CCOc1ccc2[nH]c(=O)c(C(c3nnnn3Cc3ccco3)N3CCCC(C)C3)cc2c1` (stereo not given) displayed a z-score of 0.699.

Regarding `CCc1ccc(OCCOCC(O)CNC(C)(C)C)cc1` (stereo not given), the z-score was -0.177.

Regarding `CCn1c(SCC(=O)O)nnc1C1CCCCC1`, the z-score was -0.251.

The compound `C=CCNc1nc2c(c(=O)n(C)c(=O)n2C)n1CC` registered a z-score of -0.405.

With `CCOc1cc(S(=O)(=O)N2CCCCC2)ccc1F`, the z-score stood at 0.329.

`CCCCOc1ccc(C(=O)NCC(=O)OCC(=O)N2CCN(S(=O)(=O)c3ccc(C)cc3C)CC2)cc1` yielded a z-score of -0.156.

Compound `CCOC(=O)c1sc2cccc(Cl)c2c1N` displayed a z-score of 0.0242.

Compound `O=C(CN(Cc1cccs1)C(=O)CCC(=O)Nc1nccs1)NCc1ccccc1` gave a z-score of -0.316.

With `CCOC(=O)N1CCN(C(=O)c2cc(C)no2)CC1`, the z-score is -0.139.

Consider `O=C(CSc1nnc(-c2ccc(S(=O)(=O)N3CCCC3)cc2)o1)NCc1ccccc1`, for which the z-score is 0.0515.

Turning to `COc1ccccc1Nc1nc(N)nc(CN2CCC(Cc3ccccc3)CC2)n1`, the z-score stood at 0.165.

In turn, `CCNC(=O)CN(Cc1ccccc1)S(=O)(=O)c1ccccc1` came in with a z-score of 0.149.

Compound `COC(=O)C(C)Sc1nc2c(cnn2-c2ccccc2)c(=O)[nH]1` (stereo not given) showed a z-score of -0.615.

Regarding `CCOC(=O)C1=C(C)Nc2ncnn2C1c1cccs1` (stereo not given), the z-score was -0.864.

For the compound `COc1ccccc1-c1nnc(SCC(=O)N2CCOCC2)n1-c1ccccc1`, the z-score is -0.262.

`CN(C)S(=O)(=O)c1ccc(Cl)c(NC(=O)CSc2nc3c(cc2C#N)C(=O)CCC3)c1` returned a z-score of -0.272.

As for `CCSc1nnc(-c2ccc(Cl)cc2)c2ccccc12`, the z-score came out at 0.0767.

Turning to `O=C(CC1CCS(=O)(=O)C1)NC1CCCCC1` (stereo not given), the z-score is -0.567.

`CCOC(=O)C(CC)n1cnc2c(cnn2-c2ccc(Cl)cc2)c1=O` (stereo not given): the z-score was determined as 0.0226.

In turn, `CCCCn1c(=NC(=O)c2ccc3c(c2)OCO3)c(C#N)cc2c(=O)n3cccc(C)c3nc21` displayed a z-score of -0.383.

As to `CCN(CC)S(=O)(=O)c1ccc2[nH]cc(C(=O)NCCc3ccc(OC)c(OC)c3)c(=O)c2c1`, the z-score is -0.577.

`COc1cc(/C=C(\C#N)c2nc3ccccc3[nH]2)ccc1Oc1ccc([N+](=O)[O-])cn1`: the z-score worked out at 0.0357.

The compound `COC(=O)c1ccccc1NC(=O)c1ccc(COc2cccc3ccccc23)o1` gave a z-score of -0.084.

In the case of `CN(CC(O)CN)CC(O)CN1CCCCC1` (stereo not given), the z-score is -0.365.

Compound `CC(C)(C)n1nnnc1C(c1cccs1)N1CCN(C(=O)c2ccco2)CC1` (stereo not given) had a z-score of 0.00972.

For `Cc1ccccc1N/C(=C(/C(Cl)=C(Cl)Cl)[N+](=O)[O-])n1nnc2ccccc21`, the z-score was -0.704.

`O=C(c1cc2ccccc2c(=O)o1)N1CCCC1`: the z-score stood at 0.79.

As to `COc1cc(/C=N/NC(=O)C(Cc2c[nH]c3ccccc23)NC(=O)OCC(C)C)cc([N+](=O)[O-])c1O` (stereo not given), the z-score is -0.166.

`CCOC(=O)c1ccccc1NC(=O)c1cc(S(=O)(=O)N2CCOCC2)ccc1F` had a z-score of -0.214.

For `CCN1CCN(CCCOc2ccc(-c3ccccc3)cc2)CC1`, the z-score is active: 4.56.

On to `COc1ccccc1OCCOc1ccc(/C=N/n2cnnc2)cc1`, for which the z-score was -0.299.

Take `COc1ccc(C(=O)NCc2nnc(SCC(=O)Nc3cccc(C(F)(F)F)c3)o2)cc1OC`: the z-score stood at 0.0268.

For the compound `O=C(N/N=C/C=C/c1ccccc1[N+](=O)[O-])c1cc(-c2cccnc2)nc2ccccc12`, the z-score was -0.621.

The compound `O=C(CSc1nc2sc3c(c2c(=O)[nH]1)CCCC3)NCCO` yielded a z-score of 1.54.

In turn, `Cc1cc(-c2nnc(SCC(=O)c3ccc(F)cc3)o2)no1` showed a z-score of 0.273.

Turning to `O=C(COC(=O)c1ccc(CO)cc1)NCc1cccs1`, the z-score was found to be 0.0223.

Compound `COc1cc(/C=N/NC(=O)CC23CC4CC(CC(C4)C2)C3)cc(Br)c1OCC(=O)N(C)C` displayed a z-score of -0.225.

`Cc1cc(N2CCCC2=O)cc(C)c1CN1C(=O)c2ccccc2C1=O` came in with a z-score of 0.439.

As to `O=C(NC1CCCCC1)N1CCN(C2CCCCC2)CC1`, the z-score is -0.263.

With `CCOC(=O)N/N=C\c1sccc1C`, the z-score stood at 0.0198.

In turn, `CC1=C(C)C(=O)N(c2ccccn2)C1=O` yielded a z-score of 1.3.

Turning to `CCOC(=O)N1CCC(NC(=O)CCc2c(C)nc3ncnn3c2C)CC1`, the z-score is -0.107.

On to `O=C(CSc1nc(Nc2ccccc2)nc(N2CCOCC2)n1)Nc1ccccc1Cl`, for which the z-score was -0.0891.

As for `CCSc1nc(O)c(C2OC(=O)c3c2ccc(OC)c3OC)c(=O)n1-c1ccccc1` (stereo not given), the z-score turned out to be 0.0226.

`N#C/C(=C(/O)COC(=O)Cc1c[nH]c2ccccc12)c1nc2ccccc2[nH]1` had a z-score of -0.819.

Compound `Cn1c(C(=O)N2COCC2(C)C)cc2c(=O)n3ccccc3nc21` had a z-score of 0.578.

Compound `O=C(NCc1ccc2c(c1)OCO2)c1cccc(C(=O)NCc2ccc3c(c2)OCO3)c1` displayed a z-score of -0.492.

Turning to `COc1ccc(S(=O)(=O)Nc2ccccn2)cc1OC`, the z-score was -0.302.

Take `COC(=O)C1=C(C)NC(C)=C(C(=O)OC)C1c1ccc(NC(C)=O)cc1`: the z-score was -0.268.

In the case of `Cc1nn(C)cc1NC(=O)c1nn(C)cc1[N+](=O)[O-]`, the z-score was -0.0975.

As to `CCOC(=O)c1ccc(NC(=O)CCOc2ccccc2)cc1`, the z-score worked out at 1.6.

`CC(=O)N1CCN(C2c3cccc4cccc(c34)C2NS(=O)(=O)c2ccccc2)CC1` (stereo not given) showed a z-score of 1.58.

With `COc1cc(NC(=O)C2CCN(S(=O)(=O)c3cccnc3)CC2)cc(OC)c1OC`, the z-score came to 0.263.

In turn, `CCn1c(CCn2c3ccccc3c3ccccc32)n[nH]c1=S` had a z-score of -0.105.

In turn, `Cc1nnc(NC(=O)c2cccc(Br)c2)s1` registered a z-score of 0.388.

In the case of `CC(NC(=O)CSC(=S)N(C)C)C12CC3CC(CC(C3)C1)C2` (stereo not given), the z-score is -0.229.

With `C/C(=N\NC(=S)NCCc1ccccc1)c1ccc(C#N)cc1`, the z-score was 0.203.

Turning to `O=C(NC1CCCCC1)N1CCN(C(c2ccccc2)c2ccccc2)CC1`, the z-score is -0.157.

With `N=c1scc(-c2ccccc2)n1/N=C/c1ccco1`, the z-score was -0.0997.

Take `Cn1ccnc1SCc1nc2c(cnn2-c2ccccc2)c(=O)[nH]1`: the z-score turned out to be 0.234.

In the case of `NC(=O)CCC(NS(=O)(=O)c1ccc(Cl)cc1)C(=O)NCc1ccc(Cl)cc1` (stereo not given), the z-score stood at 0.871.

Turning to `COC(=O)c1ccc(N2CCN(S(=O)(=O)c3ccc(Br)cc3)CC2)c([N+](=O)[O-])c1`, the z-score was -0.0472.

`O=C(c1ccc(F)cc1)n1ccc(-c2cnc(-c3ccccc3)s2)n1` yielded a z-score of -0.292.
